Some entries share one result that the patent states for a list of compounds. For at least one compound, name, drawing or mass did not settle the structure.
Columns and labels:
Format in all cases: in vivo
[1] = tested on: green peach aphid (Myzus persicae); assay: Myzus persicae oral test; conditions: 20 ppm, after 5 days
Protocol: Solvent: 100 parts by weight acetone
To produce a suitable preparation of active compound, 1 part by weight of active compound is mixed with the stated amount of solvent, and the concentrate is diluted with water to the desired concentration.
50 μL compound solution is filled in microtiter plates and 150 μL IPL41 insect medium (33%+15% sugar) is added to obtain a total volume of 200 μL per well. Afterwards the plates are sealed with parafilm through which a mixed population of the green peach aphid (Myzus persicae) can suck on the compound preparation.
(§1) After 5 days mortality in % is determined. 100% means all aphids have been killed and 0% means none of the aphids have been killed.

[2] = tested on: larvae of the southern green stink bug (Nezara viridula); assay: Nezara viridula spray test; conditions: 500 g/ha, barley plants, after 4 days
Protocol: Nezara viridula—Spray Test
(§2) Solvent: 78.0 parts by weight of acetone • • 1.5 parts by weight of dimethylformamide
(§3) Emulsifier: alkylarylpolyglycol ether
(§4) To produce a suitable preparation of active compound, 1 part by weight of active compound is mixed with the stated amount of solvent, and the concentrate is diluted with water, containing an emulsifier concentration of 1000 ppm, to the desired concentration. Further test concentrations are prepared by dilution with emulsifier containing water.
Barley plants (Hordeum vulgare) are sprayed with a test solution containing the desired concentration of the active ingredient and are infested with larvae of the southern green stink bug (Nezara viridula).
After 4 days mortality in % is determined. 100% means all the stink bugs have been killed; 0% means none of the stink bugs have been killed.

[3] = tested on: brown planthopper (Nilaparvata lugens); assay: Nilaparvata lugens spray test; conditions: 500 g/ha, rice plants, after 4 days
Protocol: Nilaparvata lugens—Spray Test
as §2, §3
as §4, with “solvents” for “solvent,”, “and” for “and the concentrate”
Rice plants (Oryza sativa) are sprayed with a preparation of the active ingredient of the desired concentration and the plants are infested with the brown planthopper (Nilaparvata lugens).
After 4 days mortality in % is determined. 100% means all planthoppers have been killed and 0% means none of the planthoppers have been killed.

[4] = tested on: fall armyworm larvae (Spodoptera frugiperda); assay: Spodoptera frugiperda spray test (SPODFR); conditions: 100 g/ha, maize leaf sections, after 7 days
Protocol: Spodoptera frugiperda—Spray Test
(§5) Solvent: 78.0 parts by weight acetone • 1.5 parts by weight dimethylformamide
as §3
as §4, with “solvents” for “solvent,”, “and” for “and the concentrate”
Maize (Zea mays) leaf sections are sprayed with a preparation of the active ingredient of the desired concentration. Once dry, the leaf sections are infested with fall armyworm larvae (Spodoptera frugiperda).
After 7 days mortality in % is determined. 100% means all caterpillars have been killed and 0% means none of the caterpillars have been killed.
Spodoptera frugiperda—Spray Test (SPODFR
After the specified period of time, mortality in % is determined. 100% means all caterpillars have been killed and 0% means none of the caterpillars have been killed.

[5] = tested on: green peach aphid (Myzus persicae); assay: Myzus persicae spray test (MYZUPE); conditions: 100 g/ha, Chinese cabbage leaf disks, after 5 days
Protocol: Myzus persicae—Spray Test
as §5, §3
as §4, with “solvents” for “solvent,”, “and” for “and the concentrate”
Chinese cabbage (Brassica pekinensis) leaf disks infected with all instars of the green peach aphid (Myzus persicae), are sprayed with a preparation of the active ingredient of the desired concentration.
as §1
Myzus persicae—Spray Test (MYZUPE
After the specified period of time, mortality in % is determined. 100% means all aphids have been killed and 0% means none of the aphids have been killed.

SMILES	mortality [1]	mortality [2]	mortality [3]	mortality [4]	mortality [5]
Cc1nc([C@H](C)NC(=O)c2cc(OC(F)(F)F)cc(C3(C#N)CC3)c2)n(-c2cnc(C(=O)N(C)C)cn2)n1 [Example I-055]	100%	100%	100%	100%	–
Cc1nc([C@H](C)NC(=O)c2cc(C(F)(F)F)cc(S(C)(=O)=O)c2)n(-c2cnc(C(N)=O)cn2)n1 [Example I-051]	100%	–	100%	–	90%

Source: patent US20240368125A1, “NOVEL PYRAZINYL-TRIAZOLE COMPOUNDS AS PESTICIDES” (Bayer Aktiengesellschaft, priority 2021, published 2024)
